Source: PubChem BioAssay AID686979 (National Center for Advancing Translational Sciences (NCATS), 2013)
The whole screen tested about 420,000 compounds, of which about 50,000 (12%) were called active. The shares of active, inactive and inconclusive entries below differ from those in the screen. Calls follow the shape of the dose curve; as a rule, active = well fitted inhibition curve with a large enough effect; inconclusive = small, poorly fitted or top-dose-only effect; inactive = flat fitted curve, though single readings scatter. No potency is given beside an inconclusive call; the fits are too rough.
% is scaled to controls: 0 for no effect and ±100 for the full control effect; potency is read from the fitted curve at half-maximal effect; tags tell the direction and shape of the fitted curve.

Experiment: qHTS for Inhibitors of human tyrosyl-DNA phosphodiesterase 1 (TDP1): qHTS in cells in presence of CPT; also: nearly all actives have a fitted effect of over 55% in size
Conditions: chicken DT40 Tdp1-/-;hTDP1 cells + 20 nM CPT, ATP luminescence, 48 h; activity change, negative = growth inhibition: at 46.2 µM (top of the series) unless noted
In short: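 Cell growth measured by CellTiter-Glo luminescence after a minimum 48 h, 37 C compound exposure with 20 nM CPT in Tdp1-knockout DT40 cells stably expressing hTDP1, seeded 400/well; qHTS titration format.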
For `Cc1ccc2[nH]c(=O)c(CN(CCCO)S(=O)(=O)c3c(C)ccc4nsnc34)cc2c1`, the Potency was inconclusive [inhibitor, partial curve]. For `CCN(CC)c1ccc(-c2nn3c(-c4ccccc4OC)nnc3s2)cc1`, the Potency was active: 1.3 µM. For `COc1ccc(N=C2NC(=O)/C(=C/c3ccc(O)c(OC)c3)S2)cc1`, the Potency was inconclusive [inhibitor, partial curve, poor fit]. With `CC(C)C1Cc2c(sc3c2c(=O)n(Cc2ccccc2)c2nncn32)CO1` (centres undefined) the Potency was inconclusive [inhibitor, single point]. For `O=S(=O)(c1ccccc1)N1CCN(c2nc(-c3cccs3)nc3ccccc23)CC1`, the Potency was active: 12.6 µM. In the case of `c1ccc(C[C@H]2CN=C(Nc3ccccc3)N2CC2CCC2)cc1`, the Potency is reported as inconclusive [inhibitor, single point]. With `Cc1cc(=O)oc(C)c1C(=O)OCC(=O)c1ccc2ccccc2c1` the Potency was inconclusive [inhibitor, single point]. In the case of `CN(C)CCCNc1nc(-c2ccc(Cl)cc2)nc2ccccc12`, the Potency is reported as inconclusive [inhibitor, single point]. For `CCCCC(CC)CNC(=O)c1[nH]c(C)c(C(C)=O)c1C` (centres undefined), the Potency was inconclusive [inhibitor, single point]. For `CCCc1nnc(NC(=O)CCC(=O)N2CCN(S(=O)(=O)c3ccc(OC)cc3)CC2)s1`, the Potency was inconclusive [inhibitor, partial curve]. With `COc1ccc(Cl)cc1C(=O)CSc1nnnn1C1CCCC1` the Potency was active: 16.4 µM. In the case of `N#Cc1ccccc1CN1C(=O)NC(Cc2c[nH]c3ccccc23)C1=O` (centres undefined), the “activity change, negative = growth inhibition” value is reported as inactive: 8.35%. In the case of `O=C(Nc1cccc([N+](=O)[O-])c1)c1ccc2ccccc2c1O`, the Potency is reported as active: 23.1 µM. With `Cc1cc(C)c(NC(=O)CS(=O)CC(=O)Nc2ccc(-n3cnnn3)c(C)c2)c(C)c1` (centres undefined) the activity change, negative = growth inhibition was inconclusive: -33.5% [inhibitor]. In the case of `Oc1ccc(/C=N/Nc2cc(N3CCCC3)nc(N3CCCC3)n2)cc1O`, the Potency is reported as active: 18.4 µM. In the case of `CC(C)CN=Cc1c(O)c([N+](=O)[O-])cc2oc3c(c12)CCCC3`, the Potency is reported as inconclusive [inhibitor, single point]. For `COCc1cc(C)nc(SCc2ccc(Cl)cc2)c1C#N`, the “activity change, negative = growth inhibition” value was inactive: 27.7%. With `O=C(Nc1ccccc1)Nc1ccc(Br)c(Cl)c1` the Potency was inconclusive [inhibitor, single point]. With `COc1cccc(OC)c1C(=O)OCC(=O)N(C)c1ccccc1` the Potency was inconclusive [inhibitor, partial curve, poor fit]. In the case of `COc1ccc(-c2nc(C(=O)Nc3cccc(C(C)=O)c3)nn2-c2ccc(Cl)cc2)cc1`, the Potency is reported as inconclusive [inhibitor, partial curve, poor fit]. With `CC(NC(=O)COC(=O)c1ccc2c(c1)S(=O)(=O)N=C1CCCCCN12)C12CC3CC(CC(C3)C1)C2` (centres undefined) the Potency was inconclusive [inhibitor, partial curve]. For `Cc1nc(-n2nc(C)c(Cc3ccccc3Cl)c2C)sc1C(=O)N1CCCCC1C` (centres undefined), the Potency was inconclusive [inhibitor, single point]. In the case of `CC(C)(C)NC(=O)CSc1nc(-c2ccccc2)c(-c2ccccc2)[nH]1`, the Potency is reported as inconclusive [inhibitor, single point]. With `COc1ccc(NC(=O)Nc2cccc3c2O[C@H](CN(C)Cc2ccc(-c4ccccc4)cc2)[C@@H](C)CN([C@H](C)CO)C3=O)cc1` the Potency was active: 8.2 µM. For `CN1CCN(CCCN2c3ccccc3Sc3ccccc32)CC1`, the Potency was inconclusive [inhibitor, single point]. In the case of `COc1ccc(NC(=O)c2oc3ccccc3c2NC(=O)c2cc(=O)c3c(C)cc(C)cc3o2)cc1`, the Potency is reported as inconclusive [inhibitor, single point]. In the case of `COc1cc(C(=O)CCc2ccc3c(c2)OCO3)cc(OC)c1OC`, the Potency is reported as inconclusive [inhibitor, single point]. With `Cn1/c(=N\NC(=O)c2ccccc2Cl)sc2ccccc21` the “activity change, negative = growth inhibition” value was inactive: 2.23%. With `COc1ccccc1CNCc1ccc(OC)c2ccccc12` the Potency was inconclusive [inhibitor, single point]. For `Cc1ccc(NC(=O)CS(=O)(=O)c2nc(-c3ccc(C)cc3)cn2-c2ccc(C)cc2)cc1`, the Potency was active: 20.6 µM. With `CCOc1ccc2nc(SC(CC)C(=O)Nc3cc(C)on3)sc2c1` (centres undefined) the Potency was inconclusive [inhibitor, single point]. With `CC(=O)N1Cc2cc([N+](=O)[O-])ccc2Oc2ccccc21` the “activity change, negative = growth inhibition” value was inactive: 0.228%. In the case of `Cc1onc(-c2c(Cl)cccc2Cl)c1-c1nnc(-c2ccc(Cl)cc2)o1`, the Potency is reported as inconclusive [inhibitor, single point]. With `Cc1cccc(CNC(=O)c2cnn(-c3nccc(-c4ccccc4F)n3)c2C)n1` the activity change, negative = growth inhibition was inactive: 8.42% [at 9.04 µM]. With `COc1ccc(C2CC(c3ccc4ccccc4c3)=NN2C(=O)CNC2CCCCC2)cc1` (centres undefined) the Potency was active: 14.6 µM. With `C[C@@H]1COC(=O)[C@@H](Cc2ccc(F)cc2)CC/C=C\C[C@@H](CC(=O)NCCO)C(=O)N1` the “activity change, negative = growth inhibition” value was inactive: -4.21%. For `CCN(CC)c1ccc(C=Nc2cccc(S(=O)(=O)N3CCOCC3)c2)c(O)c1`, the “activity change, negative = growth inhibition” value was inactive: 9.43%. For `COc1ccc(Cc2noc(-c3ccc([N+](=O)[O-])cc3)n2)cc1OC`, the Potency was active: 25.9 µM. In the case of `CC(C(=O)N1CCc2ccccc21)N1CCN(S(=O)(=O)c2ccc3c(c2)OCCCO3)CC1` (centres undefined), the Potency is reported as inconclusive [inhibitor, single point]. For `Cc1ccccc1C(=O)N1CCC(C(=O)OCc2nc(N)nc(Nc3ccccc3)n2)CC1`, the “activity change, negative = growth inhibition” value was inactive: -5.43%. With `CCOc1ccc(OCCOC(=O)CN2C(=O)NC3(CCCC3)C2=O)cc1` the Potency was inconclusive [inhibitor, partial curve]. With `FC(F)(F)c1ccccc1/C=N/n1c(COc2ccccc2)n[nH]c1=S` the “activity change, negative = growth inhibition” value was inactive: -3.11%. For `Cc1ccc(C(=O)OCCN2CCN(c3ncc(C(F)(F)F)cc3Cl)CC2)cc1`, the “activity change, negative = growth inhibition” value was inactive: -26.8%. In the case of `CC(=O)Nc1ccc(-c2csc(Nc3ccc(Cl)cn3)n2)cc1`, the Potency is reported as inconclusive [inhibitor, single point].
